Laboratory results published in publication PMC12136788.
The other results are listed elsewhere or left out.

T1: UNK ZnF1-3 (human, UniProt Q9C0B0 31-174)
T1 sequence: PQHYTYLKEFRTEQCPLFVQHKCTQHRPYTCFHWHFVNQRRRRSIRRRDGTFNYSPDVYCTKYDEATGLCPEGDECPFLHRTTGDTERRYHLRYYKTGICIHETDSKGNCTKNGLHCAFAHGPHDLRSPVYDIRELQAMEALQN

B1: chr2:30381511:30381512:+_ENSG00000119801_ENST00000261353|hu_mus|motif|central (ssRNA)
RNA: GGGAGUUCUACAGUCCGACGAUCCAUGUGGCGGCCAGUGAGCAUGACCCGAUCUUGAACUUCACUGUACUGCAAGUUAACGGCCUUGUUAAAAAGAAAUGCUCUACCAGUGGCGCCUGUGAACCGAGUAGAGAUGAGUUCUGACAACAGAGGAUUGAGCAUCA
B2: chr10:7844279:7844280:+_ENSG00000165629_ENST00000356708|hu_hu|FALSE|FALSE (ssRNA)
RNA: GGGAGUUCUACAGUCCGACGAUCCUCAGAAGCAUUCUUGCUGGCAUUGUCCAUGGCUGUCAUCCUGGCACUCUGCUCACUAGUGGUGGACUCCUUCAGAGAGUAGUAGAUGAUGUUGGCCAGAUUGUAUUCUUGGUAAUUUUGCAACAGAGGAUUGAGCAUCA
B3: 49385543_49387563_1208_CDS_ENSMUSG00000069495_ENSMUST00000092123|mouse|control|control (ssRNA)
RNA: GGGAGUUCUACAGUCCGACGAUCCUUAGUUUUACAUUCUUGAACUUUGUGAUGAUUUCCAUUAUGAAGGGUUGCUGGACUGGCAUAUAACUCUUUUUCUGAUCUAUUAACUUUCACUUCAUUAAGGAUUUCACCCCCAUAGUCCAACAGAGGAUUGAGCAUCA
B4: 118375313_118375433_8789_CDS_ENSG00000118058_ENST00000534358|human|control|control (ssRNA)
RNA: GGGAGUUCUACAGUCCGACGAUCGGGACUCCGGGUGGUCAAGACAGACAGAUCAGAUGGUAGCUCUAGAGGCAACUCAAACUGUUCCUCUGCUGAGAUAGAGGAAGAGACACUACUAUCCACAGGUUCUGUUGUAGGCAGCUGCAACAGAGGAUUGAGCAUCA
B5: chr11:118268936:118268937:-_ENSMUSG00000025575_ENSMUST00000017620|mus_mus|motif|central (ssRNA)
RNA: GGGAGUUCUACAGUCCGACGAUCACCCCUUGCUCCCAGUCUCCGAGCAGUACACCCAUAUGGGCCGGGGCUCAGCUCCCGGUAAUGAAAUUCUCUAGCCAGGAACACAGCUCUUAGUUAAAAAAAGAAAAAAAGCAAACGAGUCAACAGAGGAUUGAGCAUCA
B6: 97535135_97535255_1580_CDS_ENSMUSG00000038437_ENSMUST00000044730|mouse|control|control (ssRNA)
RNA: GGGAGUUCUACAGUCCGACGAUCAGUGAAGCCAGCGAGCUGAGCCGCAGGGAGGGAGGCAGUCGGGCCUGAAGCACCCUCCUUGCCUCUGCUCCCUUUGGGUCGGCCUGGCCCGUGUCGGCUCCUUUUGCUGGCUUUGUGUUUCAACAGAGGAUUGAGCAUCA
B7: chr7:151048522:151048523:+_ENSG00000013374_ENST00000566856|hu_mus|hu_hu_hu_mus_True|8_108 (ssRNA)
RNA: GGGAGUUCUACAGUCCGACGAUCCUGCUUCUUAUUUAUUACGAUCUUGAUGUAAUUUUCUUGAAAUCCGAAAGUUUCAGCUAUUUGACACCUCAGGUCUCUACCAGUGACAUGCAAGCGGGUCUCCAACAAGUUUUUCUUAUCCAACAGAGGAUUGAGCAUCA
B8: chr12:39756943:39756944:-_ENSG00000139116_ENST00000544797|hu_mus|hu_hu_hu_mus_False|48_58 (ssRNA)
RNA: GGGAGUUCUACAGUCCGACGAUCGGUUUGGCUGUUACCCCCAAGGGAAUCCUGCAAGAGUCUUGUCAGCUUAGAGUCUCUAUAGGGGACAUGUGUGGCUCUCUUGCUCUUGUCCCCCAAGGCGCUGAUUACAUUCCCAAGAGCCAACAGAGGAUUGAGCAUCA
B9: chr2:217001844:217001845:+_ENSG00000079246_ENST00000392132|hu_hu|hu_hu_hu_mus_False|38_68 (ssRNA)
RNA: GGGAGUUCUACAGUCCGACGAUCACCAACUUGAGGAUUAGAUCUUUUGUCAUAAGCAUAUCGGACGAUGGCCACCAUGUUUAACUCAUCCAAAGCAUGAAUCAGGGAGGAAAGGGCAACAGCUGCCGCCUCAUCAUCCUUUGCCAACAGAGGAUUGAGCAUCA
B10: chr2:125499325:125499326:+_ENSMUSG00000091337_ENSMUST00000164756|mus_mus|motif|central (ssRNA)
RNA: GGGAGUUCUACAGUCCGACGAUCGAGCUCUUCGGUCAGUCGAUUGACAACCAUCAGCGAAAACAGCUCUUCGAUAAAAGCGGGCUGGUCGAAAGGGCUCUUCUCACACCGCGCCUGAAAGCCGCCAUCCAGGGCAUCUCCGGCCAACAGAGGAUUGAGCAUCA
B11: 41411286_41411406_1835_CDS_ENSMUSG00000021365_ENSMUST00000163623|mouse|control|control (ssRNA)
RNA: GGGAGUUCUACAGUCCGACGAUCCUGCAUCUGGGAGCCCGGAUGUGUGUACUCGCUUGAGUUCAUGAUGCUGUUGGGCCCAUUCUUCAGAUGGGAAUUGGCAGGAUCUGCUCUAAAGAGGGUCUCCGCGUAGGUGCUGAUGGUCAACAGAGGAUUGAGCAUCA
B12: chr11:19991362:19991363:-_ENSMUSG00000020152_ENSMUST00000000137|mus_mus|FALSE|FALSE (ssRNA)
RNA: GGGAGUUCUACAGUCCGACGAUCCAAAGUCAGAACUGCCUGGAUGGCUACAUACACACCAGAAAACUGGUAAGUUUCAAACAUUACCUCUACAAUCUUCUCUCUGUUUUUGGUUGGAUUCAUGGGAGGUUCUGUAAGUAAAAUCAACAGAGGAUUGAGCAUCA
B13: 34055096_34055216_1498_CDS_ENSMUSG00000051390_ENSMUST00000053429|mouse|control|control (ssRNA)
RNA: GGGAGUUCUACAGUCCGACGAUCUAUGCCCAGCCCCACCGCAGAGGUGCCCCCGAGGGUCACUGCCCCGUGCUCAGCUGUGUUCCCUGGUGGCUGGCCUGGAGCCUGUGAAGAGGAGGAUGGGAAAACCAAGAUCUGGUUGCCCAACAGAGGAUUGAGCAUCA
B14: chr5:71490253:71490254:+_ENSG00000131711_ENST00000296755|hu_mus|FALSE|FALSE (ssRNA)
RNA: GGGAGUUCUACAGUCCGACGAUCCUUGAUGUUGGGUUCUGGGUCUUUCAGGUUUUCAGGUACGUUGAGAAACACAACCCCCAGGUCAGGGGAGAUGAGGUUUUUCAUCCAGUCACUGUUGCUGGUGGACCCCUGGGACCGCUCCAACAGAGGAUUGAGCAUCA

Molecular target: T1, UNK ZnF1-3
Assay: nsRBNS (natural sequence RNA bind-n-seq); RBNS binding buffer (assumed for nsRBNS): 25 mM Tris pH 7.5, 150 mM KCl, 3 mM MgCl2, 0.01% Triton X-100, 500 ug/ml BSA, 20 U/ml SUPERase-In, 4 C; UNK is unkempt and MSI1 is Musashi-1; names of the RNAs are library labels; protein concentration not given here; high values mean tight binding

| Binder | binding signal |
| --- | --- |
| B1 | 1.22 enrichment R |
| B2 | 0.698 enrichment R |
| B3 | 0.659 enrichment R |
| B4 | 1.53 enrichment R |
| B5 | 1.78 enrichment R |
| B6 | 0.238 enrichment R |
| B7 | 0.715 enrichment R |
| B8 | 0.756 enrichment R |
| B9 | 1.61 enrichment R |
| B10 | 1.04 enrichment R |
| B11 | 0.866 enrichment R |
| B12 | 1.42 enrichment R |
| B13 | 1.31 enrichment R |
| B14 | 0.841 enrichment R |
